Screen size: about 39,000 compounds; about 220 (0.56%) showed activity. Some of the results follow.
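Note: static incubation at 37 °C against the wild-type strain, values averaged over two biological replicates.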

The subject of the assay is Escherichia coli K-12 BW25113. The experiment in a line: relative growth (OD600 normalised to plate interquartile mean) (fraction); higher = less growth inhibition, active = 0.2 or less. The following applies: 50 µM; LB; incubation time: overnight (16-24 h).
For `COc1ccc(S(=O)(=O)N(C)C[C@H]2Oc3ccc(NC(=O)CCC(F)(F)F)cc3CC(=O)N([C@H](C)CO)C[C@@H]2C)cc1`, the relative growth is inactive: 1.

As to `C[C@H](CO)N1C[C@H](C)[C@H](CN(C)C(=O)c2ccccc2)Oc2cc(C#C[C@@H](C)O)ccc2S1(=O)=O`, the relative growth was inactive: 0.992.

With `C[C@@H]1CN([C@@H](C)CO)C(=O)c2cc(NC(=O)NC3CCCCC3)ccc2O[C@@H](C)CCCCO[C@@H]1CN(C)S(=O)(=O)c1ccc(Cl)cc1`, the relative growth is inactive: 1.01.

As to `O=c1occ(CO)c(O)c1CN1CCCCC1`, the relative growth was inactive: 0.997.

For the compound `COc1cccc(OCc2ccc(Cn3nc(NC(=O)NCc4ccccc4OC)c4ccccc43)cc2)c1`, the relative growth is inactive: 1.03.

Turning to `c1ccc(Cc2nn[nH]n2)cc1`, the relative growth was inactive: 0.983.

On to `O=C(CN1CCOCC1)NCC[C@@H]1CC[C@H](NS(=O)(=O)c2ccc(F)cc2)[C@@H](CO)O1`, for which the relative growth was inactive: 0.916.

Regarding `C[C@@H]1CN([C@@H](C)CO)C(=O)c2cc(NC(=O)Nc3ccccc3)ccc2O[C@@H](C)CCCCO[C@H]1CN(C)Cc1ccccc1`, the relative growth is inactive: 0.982.

Take `C[C@@H]1CN([C@@H](C)CO)C(=O)c2cc(NC(=O)Nc3ccccc3)ccc2O[C@@H]1CN(C)Cc1ccc(C(F)(F)F)cc1`: the relative growth is inactive: 0.99.

On to `CNC1C(OC2OC(CO)C(N)C(O)C2O)OC2CC(N)C(OC3C(N)CC(N)C(O)C3O)OC2C1O.O=S(=O)(O)O` (configuration not stated), for which the relative growth was inactive: 1.2.

With `COc1ccc(NC(=O)Nc2ccc3c(c2)C(=O)N([C@@H](C)CO)C[C@@H](C)[C@H](CN(C)CC2CCCCC2)OCCCC[C@H](C)O3)cc1`, the relative growth was inactive: 1.03.

Consider `COc1ccc(-c2cnc3c(c2)C(=O)N([C@H](C)CO)C[C@H](C)[C@H](CN(C)S(=O)(=O)c2cccc(F)c2)O3)cc1`, for which the relative growth was inactive: 1.03.

As to `Cn1cnc(S(=O)(=O)N2CC[C@H]3NC(=O)C[C@H]32)c1`, the relative growth was inactive: 0.998.

As to `COc1ccc(S(=O)(=O)N[C@@H](CNc2nc(C)nc(N3CCC(c4ccc5c(n4)NCCC5)CC3)c2C)C(=O)O)cc1`, the relative growth was inactive: 1.01.

With `CC(C)=CCOc1cc(C)cc2oc(=O)cc(-c3ccccc3)c12`, the relative growth was inactive: 0.972.

In the case of `CC(CCC(=O)O)C1CCC2C3C(O)CC4CC(O)CCC4(C)C3CCC12C` (configuration not stated), the relative growth was inactive: 1.01.

For the compound `N#Cc1cccnc1N1CCCNC(=O)C1`, the relative growth was inactive: 0.943.

`C[C@H](CO)N1C[C@H](C)[C@@H](CN(C)C(=O)Nc2cccc3ccccc23)Oc2ccc(NS(=O)(=O)c3ccc(F)cc3)cc2CC1=O`: the relative growth was inactive: 1.04.

On to `C[C@@H]1CN([C@@H](C)CO)C(=O)c2cc(NC(=O)c3ccncc3)ccc2O[C@@H](C)CCCCO[C@H]1CN(C)C(=O)NC1CCCCC1`, for which the relative growth is inactive: 0.983.

Regarding `N[C@@H](Cc1c[nH]c2ccc(O)cc12)C(=O)O`, the relative growth is inactive: 1.

Consider `Cc1noc(C)c1NC(=O)Nc1ccc2c(c1)C(=O)N([C@@H](C)CO)C[C@@H](C)[C@H](CN(C)CC1CC1)OCCCC[C@H](C)O2`, for which the relative growth is inactive: 1.02.

For the compound `C[C@@H]1CCCCO[C@H](CN(C)CC2CC2)[C@H](C)CN([C@@H](C)CO)C(=O)c2cc(NC(=O)Nc3ccccc3)ccc2O1`, the relative growth is inactive: 1.

With `CC1COC2=C1C(=O)C(=O)c1c2ccc2c1CCCC2(C)C` (configuration not stated), the relative growth was inactive: 1.04.

`Cc1noc(C)c1NC(=O)Nc1ccc2c(c1)C(=O)N([C@H](C)CO)C[C@@H](C)[C@@H](CN(C)Cc1ccc(Cl)c(Cl)c1)OCCCC[C@H](C)O2`: the relative growth was inactive: 1.03.

With `CC(C)NC(=O)Nc1ccc2c(c1)CC(=O)N([C@@H](C)CO)C[C@@H](C)[C@@H](CN(C)Cc1ccc3c(c1)OCO3)O2`, the relative growth is inactive: 0.973.

Take `C[C@H]1CN([C@@H](C)CO)S(=O)(=O)c2ccc(C#CC(C)(C)O)cc2O[C@H]1CN(C)Cc1ccccc1`: the relative growth was inactive: 1.01.

As for `CN1CCN(C(=O)C[C@H]2CC[C@@H]3[C@H](COC[C@H](O)CN3C(=O)Nc3ccc4c(c3)OCO4)O2)CC1`, the relative growth is inactive: 0.974.

As for `C[C@@H]1CN([C@H](C)CO)C(=O)c2cc(C#CC3CC3)cnc2O[C@H]1CN(C)S(=O)(=O)c1cccc(F)c1`, the relative growth was inactive: 1.03.

Regarding `C[C@@H]1CN([C@@H](C)CO)C(=O)c2cccc(NC(=O)Nc3cccc4ccccc34)c2O[C@H]1CN(C)S(=O)(=O)c1ccc2ncsc2c1`, the relative growth is inactive: 1.01.

`Cc1noc(C)c1NC(=O)N(C)C[C@H]1OCCCC[C@H](C)Oc2ccc(NS(=O)(=O)c3ccc(F)cc3)cc2C(=O)N([C@H](C)CO)C[C@@H]1C`: the relative growth is inactive: 0.993.

In the case of `C[C@H]1CN([C@@H](C)CO)C(=O)Cc2cc(NS(=O)(=O)c3ccccc3)ccc2O[C@H]1CN(C)Cc1ccc2c(c1)OCO2`, the relative growth is inactive: 1.03.

As for `C[C@H]1CN([C@@H](C)CO)C(=O)Cc2cc(NC(=O)Cc3ccccc3)ccc2O[C@H]1CN(C)Cc1ccc(C(F)(F)F)cc1`, the relative growth is inactive: 1.06.

Regarding `C[C@@H]1CN([C@@H](C)CO)S(=O)(=O)c2ccc(Br)cc2O[C@@H]1CN(C)C(=O)NC1CCCCC1`, the relative growth was inactive: 1.02.

For `O=C(C[C@H]1C[C@@H]2c3cc(NS(=O)(=O)c4ccc(F)cc4)ccc3O[C@@H]2[C@@H](CO)O1)NC1CCCC1`, the relative growth was inactive: 1.02.

As to `C[C@H]1CCCCO[C@H](CN(C)Cc2ccc(C(F)(F)F)cc2)[C@@H](C)CN([C@@H](C)CO)C(=O)c2cc(NS(=O)(=O)c3ccc(Cl)cc3)ccc2O1`, the relative growth is inactive: 1.08.

In the case of `C[C@H]1CN([C@@H](C)CO)C(=O)Cc2cc(NS(=O)(=O)c3cn(C)cn3)ccc2O[C@@H]1CN(C)CC1CCCCC1`, the relative growth was inactive: 0.998.

Regarding `C[C@H](CO)N1C[C@H](C)[C@H](CN(C)Cc2cncnc2)Oc2cc(C3=CCCCC3)ccc2S1(=O)=O`, the relative growth is inactive: 0.986.

On to `C[C@@H]1CN([C@H](C)CO)C(=O)Cc2cc(NS(C)(=O)=O)ccc2O[C@@H]1CN(C)Cc1ccc(C(=O)O)cc1`, for which the relative growth was inactive: 1.

For the compound `CNC(=O)C[C@@H]1CC[C@@H]2[C@H](COc3ccc(NC(=O)c4ccc(C(F)(F)F)cc4)cc3C(=O)N2C)O1`, the relative growth is inactive: 0.98.

Turning to `O=C(NCC(F)(F)F)C1CCNCC1`, the relative growth was inactive: 0.98.

As for `CC(C)NCC(O)COc1cccc2[nH]ccc12` (configuration not stated), the relative growth is inactive: 0.917.

Take `C[C@@H]1CCCCO[C@@H](CN(C)C(=O)Nc2ccccc2)[C@@H](C)CN([C@@H](C)CO)C(=O)c2cc(NC(=O)Nc3ccc(C(F)(F)F)cc3)ccc2O1`: the relative growth is inactive: 1.04.

As for `COc1ccc(NC(=O)N(C)C[C@@H]2Oc3ccc(NS(=O)(=O)c4c(C)noc4C)cc3CC(=O)N([C@H](C)CO)C[C@@H]2C)cc1`, the relative growth was inactive: 0.994.

Take `COc1ccc(CN(C)C[C@@H]2OCCCC[C@@H](C)Oc3ccc(NS(=O)(=O)c4c(C)noc4C)cc3C(=O)N([C@@H](C)CO)C[C@@H]2C)cc1`: the relative growth was inactive: 0.936.

Turning to `C[N+](C)(C)CCCC[C@@H]1NC(=O)[C@@H]2C[C@H](C(=O)NCc3ccc(F)cc3)[C@H](c3cccc(OCCO)c3)N2C1=O`, the relative growth is inactive: 1.01.

For `C[C@H]1CN([C@@H](C)CO)C(=O)c2cc(NC(=O)C3CC3)ccc2O[C@H]1CN(C)S(=O)(=O)c1cn(C)cn1`, the relative growth is inactive: 0.976.

Take `C[C@H](CO)N1C[C@H](C)[C@H](CN(C)S(=O)(=O)c2ccc(C#N)cc2)OCc2cnnn2CCCC1=O`: the relative growth is inactive: 0.986.

For `C[C@@H]1CN([C@@H](C)CO)C(=O)c2cc(C#Cc3cccc(F)c3)cnc2O[C@@H]1CN(C)CC1CCOCC1`, the relative growth was inactive: 0.987.

For `Cn1cnc(S(=O)(=O)N2C[C@@H](O)COC[C@H]3O[C@@H](CC(=O)NCc4ccc(F)cc4)CC[C@@H]32)c1`, the relative growth was inactive: 1.01.

For `Cc1ccc2nc(SCc3c(C)c(C)cc(C)c3C)[nH]c2c1`, the relative growth was inactive: 1.02.

For the compound `COc1ccc(S(=O)(=O)N(C)C[C@H]2Oc3c(NS(=O)(=O)c4ccccc4)cccc3C(=O)N([C@H](C)CO)C[C@H]2C)cc1`, the relative growth was inactive: 1.01.

As to `C[C@@H]1CN([C@@H](C)CO)C(=O)c2cc(NC(=O)Cc3ccccc3)ccc2O[C@H]1CN(C)Cc1ccc(Oc2ccccc2)cc1`, the relative growth was inactive: 0.961.

As to `COc1ccc(S(=O)(=O)Nc2ccc3c(c2)C(=O)N([C@H](C)CO)C[C@H](C)[C@H](CN(C)S(C)(=O)=O)OCCCC[C@@H](C)O3)cc1`, the relative growth was inactive: 0.993.

Take `c1cnc2nccn2c1`: the relative growth was inactive: 0.985.

Consider `COc1ccc(CN(C)C[C@H]2Oc3c(NS(C)(=O)=O)cccc3C(=O)N([C@@H](C)CO)C[C@H]2C)cc1`, for which the relative growth was inactive: 1.01.

`O=C(C[C@H]1C[C@@H]2c3cc(NC(=O)Nc4ccc(C(F)(F)F)cc4)ccc3O[C@@H]2[C@@H](CO)O1)NC1CCCCC1`: the relative growth was inactive: 1.

Regarding `C[C@H](O)C#Cc1cnc2c(c1)C(=O)N([C@H](C)CO)C[C@@H](C)[C@@H](CN(C)Cc1cncnc1)O2`, the relative growth is inactive: 1.01.

As to `C[C@H](CO)N1C[C@H](C)[C@H](CN(C)CC2CC2)Oc2ccc(NS(=O)(=O)c3ccc(F)cc3)cc2CC1=O`, the relative growth was inactive: 0.995.

Turning to `C[C@@H]1CCCCO[C@@H](CN(C)C(=O)c2ccncc2)[C@H](C)CN([C@H](C)CO)C(=O)c2cc(NS(=O)(=O)c3ccc(Cl)cc3)ccc2O1`, the relative growth was inactive: 0.976.

Consider `CCCN(C)C[C@H]1OCCCC[C@@H](C)Oc2ccc(NC(=O)CCC(F)(F)F)cc2C(=O)N([C@H](C)CO)C[C@H]1C`, for which the relative growth is inactive: 0.999.

Consider `C[C@@H]1CN([C@H](C)CO)C(=O)Cc2cc(NC(=O)Nc3ccc(F)cc3)ccc2O[C@H]1CN(C)Cc1ccc(C(F)(F)F)cc1`, for which the relative growth was inactive: 0.957.

Consider `C[C@@H]1CN([C@H](C)CO)C(=O)CCCn2nncc2CO[C@@H]1CN(C)C(=O)Nc1ccc2c(c1)OCO2`, for which the relative growth was inactive: 0.989.

(Values after the supplement of paper PMC9446081.)
